Measured values from paper PMC12040169 (PLOS Biology, 2025).
Some of the results follow.

system: T1, C. trachomatis L2/434/Bu expressing GFP (CTL2-GFP); design: species or system HeLa; C. trachomatis total inclusion area by high-content imaging, normalised to DMSO; details: total inclusion area; 28.5 h, 10 µM; inhibitor
T1 construct: L2/434/Bu GFP intracellular growth in HeLa cells
Summary of the method: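 High-content images of fixed, Hoechst-stained infected cultures supply inclusion area and count (growth) plus nuclei number (viability), complementing bulk GFP/resorufin fluorescence. MIC determination is unchanged from the primary assay.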

SMILES	% of control remaining
N#Cc1c2ccccc2cn1Cc1cccc(Cl)c1 [CBK019531]	61.5057
COc1cc2c(cc1OC)C1c3ccccc3NC(=O)N1CC2 (stereo not shown) [CBK284471]	59.9272
CC1(C)CC(=O)c2cc(C(N)=O)c(=O)n(-c3ccc(Cl)cc3)c2C1 [CBK293936]	82.5427
COc1cc(C(C)=O)ccc1OCCCN1CCC(O)(C(=O)c2ccc(Cl)c(Cl)c2)CC1 [CBK024875C]	104.5
O=C(NCc1ccccc1OC1CCNC1)c1ccccc1 (stereo not shown) [CBK028301T]	98.7546
O=C1CC(N2CCC(c3nc4ccccc4s3)CC2)C(=O)N1Cc1ccccc1 (stereo not shown) [CBK267438]	101.334
COc1ccc(C(=O)N(CCC#N)Cc2ccco2)cc1 [CBK304862]	85.8991
Cc1cccc(-c2ncc(NC(=O)Cc3cccc(Oc4ccccc4)c3)nc2-c2ccc(N)cc2)c1 [CBK037583]	131.738
CNS(=O)(=O)c1ccc(CCC(=O)N(C)Cc2cnn(C)c2)cc1 [CBK305712]	54.9148
Cc1ccc(O)c(Nc2ncnc3ccccc23)c1 [CBK266020C]	100.691
Cc1nc(S)[nH]c(=O)c1Cc1ccc(F)cc1 [CBK288456]	85.6421
COc1cccc2cc(C(=O)Nc3cccc(C)n3)oc12 [CBK287659]	98.1869
Cc1cc(C)nc(NC(=O)OCCc2ccncc2)c1 [CBK138233]	105.649
CCOc1ccc(C(C)(CC(=O)O)C(=O)O)cc1 (stereo not shown) [CBK261361]	73.5926
CC(CCN(CCN)C(=O)N1CCC(Cn2cncn2)(C2CCCCC2)CC1)c1ccccc1 (stereo not shown) [CBK002130C]	81.6791
O=C(COc1ccccc1)Nc1ccccc1N1CCNCC1 [CBK028279T]	89.146
Nc1cc2cccnc2c(-c2ccc(OC(F)(F)F)cc2)n1 [CBK061926]	82.5079
CN1CCN(C(=O)CNC(=O)CNS(=O)(=O)c2ccccc2)CC1 [CBK268651]	115.066
CC(C)(C)OC(=O)N1CCC(C2OCc3cc(C(=O)N4CCNC(=O)C4)ccc3O2)CC1 (stereo not shown) [CBK173277]	77.0115
Fc1ccc(Oc2nccnc2N2CCN(CCOc3cccnc3)CC2)cc1 [CBK083037T]	107.013
COc1ccc(-c2cc(C(=O)Nc3ccc(S(N)(=O)=O)cc3)c3ccccc3n2)cc1OC [CBK263635]	96.4484
Cc1cc(NC(=O)Cc2ccccc2)nc2c1c(=O)oc1ccccc12 [CBK291127]	120.374
O=C(C1=C(O)C(=O)N(Cc2ccncc2)C1c1cccc(OCc2ccccc2)c1)c1cccs1 (stereo not shown) [CBK266247]	124.488
CCC(c1ccccc1)N1CCN(Cc2noc(C)n2)CC1 (stereo not shown) [CBK305084]	54.5488
COc1ccc(CN2CCC(Cc3ccccc3-c3cccc(F)c3)(C(N)=O)CC2)cc1 [CBK286277]	83.9289
Cc1nn(CC(C)C(=O)NCCN2CCC(C)CC2)c(C)c1Cl (stereo not shown) [CBK281570]	104.424

SMILES	% of control remaining
Cc1ccnc2nc(C(=O)OCC(=O)Nc3ccc4c(c3)CCC4)nn12 [CBK305853]	86.2061
CC1(C)CC(=O)C2=C(C1)NC(Nc1nc3ccccc3s1)=NC2c1cccnc1 (stereo not shown) [CBK270025]	81.0007
Cc1cccnc1NC(=O)COc1ccc(Cl)cc1Cl [CBK262154]	58.1014
CCn1c(N2CCC(C(=O)NCC3CC3)CC2)nc2ccccc21 [CBK283983]	59.9031
COc1ccc(C)cc1C1(CNC(=O)C2CCC(=O)N2)CCOCC1 (stereo not shown) [CBK304967]	75.0184
COc1ccccc1CNCc1ccccc1OC [CBK262168]	93.6464
CC(C)c1ccccc1OCC(=O)N1CCCc2c(cnn2C)C1 [CBK285287]	86.8063
COc1ccccc1N1CCN(C2CCN(S(=O)(=O)c3ccc(NC(C)=O)cc3)CC2)CC1 [CBK264688]	104.545
Cc1ccc(C(=O)N/C(=C\c2ccccc2F)c2n[nH]c(=S)[nH]2)cc1 [CBK263136]	87.7137
N#CC1(NC(=O)CN2CCOC(Cn3cccn3)C2)CCCCC1 (stereo not shown) [CBK305268]	82.6402
CCCN(C(=O)C1CC1)c1nc2c(s1)CCc1c-2cnn1C [CBK281930]	65.188
CS(=O)(=O)c1ccc(CN2CCC3(CCN(Cc4ccccc4)CC3)C2)cc1 [CBK144066T]	73.4375
CN(Cc1cnn(C)c1)C(=O)C1CCCN1Cc1ccccn1 (stereo not shown) [CBK305092]	71.5261
C=C[C@H]1C[N@@]2CC[C@H]1C[C@@H]2CNS(=O)(=O)c1cccc(C#N)c1 [CBK288750]	107.47
O=C(NCc1ccccc1OC1CCNC1)c1cnccn1 (stereo not shown) [CBK029462T]	105.568
COc1ccc(OC(=O)N2CCC(n3c(=O)[nH]c4ccccc43)CC2)cc1 [CBK149868]	114.116
Nc1ccc2cc(-c3cccc(OCc4ccccc4)c3)cnc2n1 [CBK081172]	95.256
COc1cc(CNCc2ccccn2)ccc1OCc1cccc(Cl)c1 [CBK269877C]	98.3589
Cc1c(C)n(CC(O)CN2C(=O)c3ccccc3S2(=O)=O)c2ccccc12 (stereo not shown) [CBK263960]	127.511
CCCC/C=C/c1cnc(N)c(N2CCOCC2)n1 [CBK063398]	133.143
Nc1nn2c(c1Cc1c(Cl)cccc1Cl)OCC2 [CBK088759]	69.4165
CN1CCC(NC2(Cc3cc(-c4ccccn4)on3)COC2)CC1 [CBK289249]	119.403
O=C(Nc1ccc(Cl)cc1)NC(C(=O)O)c1ccccc1 (stereo not shown) [CBK267405]	71.9943
CCOC(=O)Cc1csc(NS(=O)(=O)c2cn(C)cn2)n1 [CBK000888]	115.682
CCc1cccc(CC)c1NC(=O)CN(c1cccc(Cl)c1Cl)S(C)(=O)=O [CBK265934]	106.306
C[C@@H]1CN(C(=O)c2cc3ccccc3n2C)C[C@H](C)O1 [CBK200234]	106.599
